The supplement of paper PMC11417369
± gives the standard deviation of the averaged measurements. This is one part of the list.

test system: PfAP2-I AP2 domain 3 (GST-tagged); assay: gcPBM binding intensity (ln(normalized median fluorescence intensity)); higher = stronger DNA binding
How it was run: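 Plasmodium falciparum DNA-binding domains carrying a GST tag were expressed in E. coli and applied for 1 h, at about 25 μg on average, to an Agilent 4 × 180k array. The array held primer-extended double-stranded 36-bp intergenic genomic probes together with negative controls, and binding took place in 1× PBS with 1% milk, 0.2 mg/ml BSA, 0.5% salmon testes DNA and 0.03% Triton X-100. An Alexa488 anti-GST antibody detected bound protein, and the array was scanned at 488 nm. Binding intensity is taken as the highest Masliner-normalised natural-log median intensity across replicate spots of either probe orientation.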

Row | Sequence | gcPBM binding intensity (ln)
1 | TATTAATGATAAAAAAGTACATTATTATATGATATT [XGTACX_site4235] | 7.66 ± 0.49
2 | TAAGTCATATAAATGTGTACATAAAAAAAAAAAATG [XGTACX_site1645] | 8.14 ± 0.39
3 | TTTTTTTTTTTTTTTTCACACATTGTACTTTTTTAT [CACACA_site5193] | 8.18 ± 0.76
4 | ATCATTTGCATACGCACACACACATAAAAAGAAAAA [CACACA_site355] | 8.735 ± 0.078
5 | TCTATCAAATTTGAAGGTACACATTTGAGATAATTA [XGTACX_site3797] | 7.57 ± 0.32
6 | ATTATACAAATTGAGGTGCATGAAACAAAATATGAA | 9.755 ± 0.021
7 | ATATTTTTTTTTTTATGTACTTATTTATAATTATTT [XGTACX_site5279] | 7.92 ± 0.63
8 | AGCTTGTAACAGTTTACACACTAATATTTATAAATT [CACACA_site6024] | 8.04 ± 0.46
9 | CTTATAAGAATACTAGTGCACATAATTTAACGAAAA | 11 ± 0.59
10 | CACCAAAATATATGTACATATGATAAATGTGAATAT [GTGCAC_negctrl_site83] | 8.13 ± 0.57
11 | TTTTACAATATTTTGTGTACTTATATTATGAGCTTA [XGTACX_site3287] | 7.72 ± 0.5
12 | AAAATTATCGTTATATGTACGCATCTTAATACGTAT [XGTACX_site4063] | 7.79 ± 0.4
13 | GTCTATATATTTTAGGTGCAACGTAAATGTAAAAAT | 9.76 ± 0.11
14 | AACTTTAAACCCTGAACACACACAAATACACCCAAA [CACACA_site7971] | 8.705 ± 0.064
15 | ATAATCCACAAGCACACACACACACCCATATATATA [CACACA_site1268] | 8.4 ± 0.61
16 | TATATATATATATATATATATATATATGTATATATG [XGTACX_negctrl_site242] | 9.2 ± 0.91
17 | AAAAAAAAAAAAAAAGGTACACAAAACGGTATTATT [XGTACX_site7064] | 8.56 ± 0.51
18 | ATACATATTAATATGTGTACACATTTTTATTTTTTT [XGTACX_site930] | 7.95 ± 0.45
19 | AACTCATAGGAGTGTGCACACAAAAAATTAAAAAAA [CACACA_site8996] | 9.52 ± 0.42
20 | TTTTTTTTTTTTGTCACACATATGGAATATATCTAT [CACACA_site5899] | 8.06 ± 0.76
21 | TTTTTTTTTTTTTTTGCACACATTTTAATTATTTTT [CACACA_site341] | 9.11 ± 0.33
22 | CTCAAAAAATATGAACGTACAAAATAAGTAATGACA [XGTACX_site590] | 7.99 ± 0.62
23 | TTATATTTATTTAATGAACACACGATATATTATTTT [CACACA_site1601] | 7.63 ± 0.54

Row | Sequence | gcPBM binding intensity (ln)
24 | TTTTAAAAAAGAAAAAAAAAGGATCAGAGAAATATT [GTGCAC_negctrl_site79] | 7.68 ± 0.71
25 | TTGTAGATATTTATATGTACGAATTTATAAATATAG [XGTACX_site3611] | 7.92 ± 0.26
26 | AAAAAAATTAATAATGTGCACTTTTTAGTATTTTTA [GTGCAC_site9744] | 10.24 ± 0.071
27 | AAATGTTAATTAAATGCATGTACAAAAGGAGCGAAT [TGCATGCA_site942] | 9.01 ± 0.4
28 | TTTGTCAACCAAAATTGTACAAATGTATTCCCAATA [XGTACX_site1350] | 7.57 ± 0.64
29 | TTATTTATCAAAAAATGTACAAAAATATATAAACAA [XGTACX_site940] | 7.93 ± 0.47
30 | ATTATTTTATGAGACATAAAAAAAAAAAAAAAAAAA [CACACA_negctrl_site1067] | 8.03 ± 0.61
31 | AGATGAGAGATATATACACACAATAATACCTATTTA [CACACA_site6542] | 7.58 ± 0.73
32 | TTTTTATTCCAGTATTCACACACGAATAACCACATA [CACACA_site1897] | 7.97 ± 0.61
33 | ATTTTCTTTTTTAAACGTACACATATTAAATATATA [XGTACX_site7773] | 8.34 ± 0.4
34 | AATAAATTCATGAATTGTACGTAATGATAACATGAA [XGTACX_site2591] | 7.93 ± 0.57
35 | TTATAACTTTTCACAAGTACATATATATATGTATAA [XGTACX_site2306] | 7.84 ± 0.23
36 | TTTGGAAAGCGTGATTTTTGACAAACACAAAAAAAA [CACACA_negctrl_site651] | 7.62 ± 0.75
37 | ATATATATGTTTTTATGTACATATTTTTCTCCTTCA [XGTACX_site5899] | 7.99 ± 0.7
38 | TAATATCGTATATGAGTGCAATATTTTAGATTTTGA | 10.6 ± 0.59
39 | AATATATCAAAAATGATGACATAAATATATTAATTT [GTGCAC_negctrl_site530] | 7.38 ± 0.66
40 | TGCACGCACAGACACACACACAACTAAAAAATAATG [CACACA_site7250] | 8.305 ± 0.078
41 | AAAAAAAGGTAAAATTGTACATACGCACAAAAATAT [XGTACX_site2887] | 8.23 ± 0.61
42 | ATTTCCTTGAATGTTGCATGCTGTATTTTAATTAAA [TGCATGCA_site280] | 7.89 ± 0.91
43 | AAAAAAAGGAAATTTACACACACATATAATATACAT [CACACA_site3297] | 7.8 ± 0.69
44 | TAGATTATTATACTAGTGCAAATTATTTAAGAAAAA | 10 ± 0.34
45 | AAAAAAAAAAAGTGCACACATAAAAATATGATCTAA [CACACA_site572] | 10.2 ± 0.42
46 | TAAATTTTTCTAAGTGCATGTTAATTTTTCAATTTA [TGCATGCA_site906] | 9.19 ± 0.59

Row | Sequence | gcPBM binding intensity (ln)
47 | ATATTATTTATAAAAGTGCAAAAATCACTTCTTTTA [GTGCAC_site9656] | 9.38 ± 0.22
48 | TTTAAAAAGTTATGAAGTACATATATATATATATAT [XGTACX_site2188] | 9.43 ± 0.48
49 | GAACAAAATGATAGAAGTACAAATATTTATTTTGTT [XGTACX_site7146] | 7.84 ± 0.64
50 | TGGGAACAATATATTTGTACTTAAATAAATAAAAAA [XGTACX_site6762] | 7.76 ± 0.61
51 | AAAGAGAAACAAAATTGTACATTATATTGTAGACGT [XGTACX_site976] | 7.88 ± 0.67
52 | TATATTTATAAGTGTACACATTATATAAATCCCTAT [CACACA_site6122] | 8.08 ± 0.27
53 | ATTAAATGATTCATATGTACATAAATAAATAAATAT [XGTACX_site2249] | 8.02 ± 0.32
54 | TTTCTTTTTAAAGTGTATTAAAATTGAATAAAAAGA [XGTACX_negctrl_site408] | 8.1 ± 0.19
55 | TATTAATATTTACACACATGCGCACACATAAATAAA [TGCATGCA_site609] | 8.69 ± 0.46
56 | TTTTTTTTTTTTGTCACACACCTTCATAAGAAAAAA [CACACA_site4779] | 8.21 ± 0.66
57 | ATCATCACATAAGAAAATAGATAAAAAAAAAAAAAT [XGTACX_negctrl_site589] | 7.53 ± 0.48
58 | GTACAGATATTGTACATACACACCTATATAAATATC [CACACA_site5739] | 7.94 ± 0.4
59 | TAAATCCGCAGGCACACACACATATTAAGAAAAAAA [CACACA_site6061] | 8.18 ± 0.36
60 | ATGAAAAAACATAATTGTACAAAAGTTGGATTCGAT [XGTACX_site7732] | 8.33 ± 0.52
61 | TATTTAAAAGATGAAAGTACACATTTAATTACATTT [XGTACX_site3781] | 7.75 ± 0.17
62 | ATGTGTATACTAAGAACACACAAGTTACTTGGTGTT [CACACA_site6864] | 7.47 ± 0.7
63 | TATATTTAACATACTTTTTTTTTTTTTTTTTTTTTT [CACACA_negctrl_site938] | 9.55 ± 0.099
64 | AAAAAAAAAAAACATACACACAAGAACAAAATATGA [CACACA_site3002] | 7.94 ± 0.14
65 | AGTCTTTTACATTGCACACACATTTCTTTCCTTTTG [CACACA_site2988] | 9.24 ± 0.39
66 | TAATTAGCATAATACACATGCATACATTTATATATA [TGCATGCA_site542] | 7.94 ± 0.65
67 | TACATATATCTATGTGTGCACTTATTTCCGGACAAA | 10.4 ± 0.15
68 | TATCTGTATTTGTATACACACAAATGTATTTATTTA [CACACA_site4830] | 7.7 ± 0.56
69 | TACAATATTTCGAGCTTGCACTTTTATTAAGTAAAT | 8.09 ± 0.52

Row | Sequence | gcPBM binding intensity (ln)
70 | TATACAGACAGACACACACACATATATAAATATGTA [CACACA_site6912] | 7.76 ± 0.35
71 | ATTATTATTTTTAACTGTACATAGATATAGATATCC [XGTACX_site8714] | 7.82 ± 0.5
72 | TAAGAAAAATATATATGTACACATATATATATATAT [XGTACX_site8542] | 9.01 ± 0.74
73 | AACTTTTATACGGATACACACAAAAAAAAATAAAAA [CACACA_site6547] | 7.88 ± 0.28
74 | TGTATGTTATATACAACACACAAAAAAAAACAAGTT [CACACA_site301] | 7.62 ± 0.7
75 | TGATTAAAAGAGGGAAAAAAAAAAAAAAAAAAAAAA [CACACA_negctrl_site896] | 8.23 ± 0.91
76 | TGACGAAAAAAAAGGGTGCTTAGTATAACTTTAAAG | 9.085 ± 0.049
77 | TTCTTTTTTAAACACACACACACAAGAAAATATATA [CACACA_site5680] | 8.29 ± 0.27
78 | TCGACAAATGTATATACACACATTTGTAACATAAAT [CACACA_site560] | 7.58 ± 0.39
79 | TATAAAGGTGAAATTTGTACATAGTCATTTTTTAAT [XGTACX_site4811] | 7.72 ± 0.62
80 | TTATTCAGAAAAAAAAAAAAAAAAAAAAAAAAAAAA [CACACA_negctrl_site1662] | 8.29 ± 0.95
81 | GAGAAGACATTACACAGTACCCAGGAAATCTACGGA [XGTACX_site1993] | 7.56 ± 0.82
82 | ATATGTAAAGAAAAGTAAACACTAATTTTAAACAAT [CACACA_negctrl_site11] | 7.48 ± 0.76
83 | TATATATATGTGCAGTGTACTTTTTTTTTCTGTAAG [XGTACX_site3424] | 8.8 ± 0.93
84 | TTTTTTTTAATTGTGATACGTATATTATTTTTTGAT [TGCATGCA_negctrl_site318] | 7.72 ± 0.5
85 | ATTTTTAATATTATTACACACACTAATAAAAAAAAA [CACACA_site8265] | 7.96 ± 0.27
86 | ATATATATATATATATGTACTTAATATTTCTTATTT [XGTACX_site6206] | 9.37 ± 0.25
87 | TATATTAAGTATAAGACACACATATAGTAATAGAAA [CACACA_site5176] | 7.71 ± 0.58
88 | TTATAAAAAAAAATAACACACAGACATAAGAATAAA [CACACA_site9383] | 8.09 ± 0.61
89 | AAATATAATAATAATTTAAGAATCTAATATTTTATA [CACACA_negctrl_site831] | 7.05 ± 0.35
90 | TACTATATCGATACCAGTACAGATTTATAAATAATA [XGTACX_site7491] | 7.68 ± 0.35
